Results from PubChem BioAssay AID588593 (Sanford-Burnham Center for Chemical Genomics, 2011).
Certain results were filed several times, with different values. They are shown here; other results are not. The source may hold further records. The records of an entry are repeats across runs, samples, wells, individuals or studies. Brackets tell where a record comes from. Letters count within one entry.

Biological target: glucose-6-phosphate dehydrogenase-6-phosphogluconolactonase (Plasmodium falciparum 3D7)
Experiment: PfG6PD enzyme inhibitors, kinetic NADPH readout, SAR follow-up, orthogonal assay, biochemical, kinetic NADPH detection (AID 588593)
Conditions: recombinant PfG6PD-6PGL

## CCN1CCCC1CNC(=O)c1ccc2c(c1)NC(=O)/C(=C/c1ccccc1F)S2 (stereo unspecified)
  IC50: 1.37 µM [sample A] and 21.5 µM [sample B]
